# Assay results as given in the supplement of paper PMC3334620.
# Whole data set: some 33,000 sequences, median “E-score (-0.5 to 0.5)” near -0.041, cut for the highest 2% near 0.37. Some of the results follow.
# Target: T1, Ecm22 (UniProt Q05958)
# T1 sequence: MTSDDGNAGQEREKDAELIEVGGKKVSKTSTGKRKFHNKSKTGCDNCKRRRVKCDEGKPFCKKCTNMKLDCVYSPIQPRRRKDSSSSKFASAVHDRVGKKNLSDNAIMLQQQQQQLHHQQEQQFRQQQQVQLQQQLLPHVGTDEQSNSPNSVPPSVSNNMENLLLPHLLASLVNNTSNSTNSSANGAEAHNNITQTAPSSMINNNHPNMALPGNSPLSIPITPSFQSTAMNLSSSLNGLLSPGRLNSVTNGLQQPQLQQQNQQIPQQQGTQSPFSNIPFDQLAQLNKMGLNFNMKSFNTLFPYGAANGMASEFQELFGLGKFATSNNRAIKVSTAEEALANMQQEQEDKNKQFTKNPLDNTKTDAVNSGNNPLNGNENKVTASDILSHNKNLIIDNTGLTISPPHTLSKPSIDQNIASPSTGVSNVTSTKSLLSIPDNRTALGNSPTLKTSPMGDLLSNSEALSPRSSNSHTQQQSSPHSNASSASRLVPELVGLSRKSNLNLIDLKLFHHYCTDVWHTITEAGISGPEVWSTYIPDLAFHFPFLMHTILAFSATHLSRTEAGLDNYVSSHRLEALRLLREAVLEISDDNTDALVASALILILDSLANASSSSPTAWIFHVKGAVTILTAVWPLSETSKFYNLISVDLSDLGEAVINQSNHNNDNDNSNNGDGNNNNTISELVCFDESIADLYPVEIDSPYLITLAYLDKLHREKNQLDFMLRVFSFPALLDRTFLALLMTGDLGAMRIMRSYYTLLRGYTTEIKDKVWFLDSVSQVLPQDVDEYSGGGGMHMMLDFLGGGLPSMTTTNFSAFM
# Test: PBM E-score (8-mer binding enrichment) (E-score (-0.5 to 0.5)); higher = stronger / more preferred TF binding; most listed sequences are background and not binding sites
# Settings: protein concentration: 200 nM; construct: GST-full length
# Procedure, shortened: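 For each ungapped eight-base word taken together with its reverse complement, the Universal PBM Analysis Suite assigned an E-score. Binding data came from GST-tagged yeast transcription factors, applied at about 100-200 nM, on universal all-10-mer Agilent arrays made double-stranded by primer extension. Fluorescent anti-GST marked bound protein, and scans were normalised with masliner.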
row,Sequence,PBM E-score
1,AAAGTTGA,-0.0947
2,CCTCTACA,-0.158
3,ATGTTTGG,0.00241
4,AGGCTCAC,-0.191
5,GACCCCCC,-0.167
6,ATACTTCG,0.18
7,CTTCGGAA,0.163
8,CACTTAAA,-0.129
9,AGCATTTC,-0.125
10,TAAAAGCA,0.0355
11,AGAATAAT,-0.0371
12,AGGCCACC,-0.0477
13,TCTTGGAA,-0.0708
14,CATAATAC,0.161
15,TCAAAGAA,-0.0967
16,ATTCTAGC,-0.164
17,CAGATATG,0.0146
18,GTGGGTTA,-0.0771
19,GAAGGGTA,0.0433
20,GCATTGGA,-0.163
21,GCCATGCC,-0.105
22,ATACTAAT,0.065

row,Sequence,PBM E-score
1,CGGTTGCC,0.0445
2,TATCTTCA,0.116
3,CGGAATAG,-0.0923
4,AATGTTAG,0.0051
5,GCTCCTGA,-0.174
6,CACAAGCG,0.028
7,GAGAGAAC,-0.0496
8,CGCAGGGC,0.0788
9,ACTGGAAT,-0.232
10,CACAACTA,0.105
11,ACGGCCAC,-0.0659
12,ATGGTTGA,-0.269
13,AATTCAGG,0.00191
14,CGCGTGGC,-0.0813
15,CTCACAAA,-0.116
16,GGTGCTAA,0.0163
17,AATCAATG,0.0975
18,GTGTGAGA,-0.128
19,AATCTACG,0.143
20,CAGTGTAC,0.155
21,TAACAATA,0.0544
22,CATTTTGA,-0.0977

row,Sequence,PBM E-score
1,CGACCCCG,-0.0356
2,CGCTTAAA,0.278
3,AGACTACG,-0.0604
4,GAGGCTCA,-0.237
5,AAATATAG,-0.00859
6,GCATACAC,0.0458
7,CTCCCAGC,-0.0732
8,CCTTTATC,-0.0497
9,TAAGGATA,0.00857
10,ATTATTCA,-0.151
11,GCTGGGAA,0.0268
12,ATCTCTCA,-0.186
13,TAAGTGTA,0.103
14,TTAGCCAA,-0.044
15,TAACAGAA,-0.0719
16,CGCACCCC,-0.0698
17,CGTAACGA,0.338
18,CGTTCGCA,0.268
19,CCGGGTAG,-0.0969
20,ACTGCGGC,0.0118
21,CCCATACA,-0.32
22,ACCTAAAC,0.222

row,Sequence,PBM E-score
1,ATGCCTGG,-0.215
2,GCTACGTA,0.265
3,ACTTGCAT,0.037
4,ACAGCGGG,-0.0562
5,ATTGCAGC,-0.0429
6,CATAGGAC,-0.091
7,CAGAACGA,0.379
8,AGATCGCC,0.141
9,ATCCTAGC,-0.123
10,AGAAACCA,-0.0581
11,GGGGAAAA,-0.0524
12,GTTCTACA,0.0069
13,CGGCTGCA,0.0404
14,ATCGGTTA,0.362
15,GCCACCGC,-0.199
16,GAAGAAAA,-0.126
17,CTTTATTC,-0.087
18,CCCTGGCC,-0.261
19,CGAGTCTC,0.111
20,CGACCTAA,0.293
